Laboratory results: PubChem BioAssay AID1452 (National Center for Advancing Translational Sciences (NCATS), 2008)
Several values for one entry are separate records, joined by “and”; a condition that tells them apart may be missing. Identical values can stand only once. Among all 150,000 compounds or so, about 190 (0.13%) were called active. Inconclusive results, whose numbers are uncertain, are shown with a selection of clear calls. Calls come from the whole dose curve; as a rule, active = well fitted inhibition curve with a large enough effect; inconclusive = small, poorly fitted or top-dose-only effect; inactive = flat fitted curve, though single readings scatter. Potencies beside an inconclusive call are fits to weak or partial responses and may not hold up.
% is set by controls: 0 for no effect and ±100 for the full control effect; potency is the fitted concentration of half-maximal effect; tags give direction and shape of the fitted curve.
Note: nearly all actives have a fitted effect of over 55% in size.

What follows are molecules tested against Polyunsaturated fatty acid lipoxygenase ALOX12 (Homo sapiens) (UniProt P18054) (assay: qHTS Assay for Inhibitors of 12-hLO (12-human lipoxygenase)). Details: purified 12-hLO, xylenol orange hydroperoxide absorbance; series mostly up to 57.1 µM.
UniProt P18054, sequence (P18054 whole entry, looked up): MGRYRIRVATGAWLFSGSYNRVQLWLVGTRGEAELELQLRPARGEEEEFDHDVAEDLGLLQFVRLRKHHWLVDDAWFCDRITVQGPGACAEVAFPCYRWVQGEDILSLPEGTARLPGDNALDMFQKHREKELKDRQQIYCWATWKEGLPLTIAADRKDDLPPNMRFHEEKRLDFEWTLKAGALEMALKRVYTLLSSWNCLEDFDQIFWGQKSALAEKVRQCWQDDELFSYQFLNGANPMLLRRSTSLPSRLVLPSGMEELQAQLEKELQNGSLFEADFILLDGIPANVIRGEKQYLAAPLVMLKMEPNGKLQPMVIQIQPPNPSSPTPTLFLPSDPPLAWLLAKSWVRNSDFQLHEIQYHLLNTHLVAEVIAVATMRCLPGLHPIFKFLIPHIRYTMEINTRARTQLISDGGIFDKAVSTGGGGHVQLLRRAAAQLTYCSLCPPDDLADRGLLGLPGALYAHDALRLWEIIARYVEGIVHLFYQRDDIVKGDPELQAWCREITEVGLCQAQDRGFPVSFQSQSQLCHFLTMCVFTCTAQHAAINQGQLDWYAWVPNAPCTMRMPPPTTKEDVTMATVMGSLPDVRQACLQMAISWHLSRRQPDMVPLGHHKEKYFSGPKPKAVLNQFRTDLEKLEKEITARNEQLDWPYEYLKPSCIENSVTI
Method in brief: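 Purified human 12hLO (150 nM), preincubated 15 min with compound, then 40 uM arachidonic acid for 30 min, room temperature, Hepes pH 7.0 with 0.01% Triton X-100. Hydroperoxide detected by ferrous iron/xylenol orange; 573/405 nm absorbance ratio gives reaction progress.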
With O=c1[nH]c(-c2cccnc2)nc2ccccc12 the Potency was “inactive”.
In the case of C=C(C)COc1ccc(-c2[nH]ncc2-c2ccccc2)c(O)c1, the Potency was inconclusive: 5.62 µM [inhibitor, partial curve].
With CCc1c(-c2n[nH]c(=S)n2Cc2ccccc2)csc1C the Potency was inconclusive: 39.8 µM [inhibitor, single point].
In the case of S=C(NCCc1ccccc1)Nc1ccccn1, the Potency was inconclusive: 3.16 µM [inhibitor, full curve].
With C=C(C)COc1ccc(-c2[nH]ncc2Oc2cccc(OC)c2)c(O)c1 the Potency was inconclusive: 3.98 µM [inhibitor, full curve, poor fit].
In the case of CS(=O)(=O)N1CCC2(CC1)CN(Cc1ccc(C#N)cc1)C2, the Potency was “inactive”.
CC/C(C)=N/Nc1cccc([N+](=O)[O-])c1 was tested, and the Potency was inconclusive: 2.51 µM [inhibitor, full curve].
c1coc(-c2nc(-c3ccco3)c(-c3ccco3)nc2-c2ccco2)c1 was tested, and the Potency was inconclusive: 17.8 µM [inhibitor, partial curve].
For Cc1ccccc1NC(=S)N1CCC(C(=O)c2ccc(F)cc2)CC1, the Potency was “inactive”.
With Cc1ccc(S(=O)(=O)Nc2ccc3oc(=O)sc3c2)c(C)c1 the Potency was inconclusive: 12.6 µM [inhibitor, partial curve].
CN1CCN(C(=S)NC(=O)/C=C/c2ccccc2)CC1 was tested, and the Potency was “inactive”.
For O=C(COC(=O)C1(c2ccccc2F)CCCC1)N1CCN(C(=O)c2ccco2)CC1, the Potency was “inactive”.
O=C(O)c1cc2cc(Cl)cc(Cl)c2oc1=O was tested, and the Potency was inconclusive: 31.6 µM [inhibitor, single point].
COCCCNC(=S)NNC(=S)Nc1ccc(F)cc1F was tested, and the Potency was inconclusive: 31.6 µM [inhibitor, single point].
In the case of CC[C@H](CO)NCCN[C@@H](CC)CO, the Potency was “inactive”.
CCCCCCC(=O)Nc1ccc(C(=O)N2CCCC2)cc1 was tested, and the Potency was “inactive”.
For CC(C)C(=O)N(c1ccc2oc(=O)sc2c1)S(=O)(=O)c1cccs1, the Potency was inconclusive: 12.6 µM [inhibitor, partial curve].
In the case of O=C(NC(=S)Nc1cc(-c2nc3ccccc3[nH]2)ccc1Cl)c1ccc2c(c1)OCO2, the Potency was “inactive”.
CC(C)Oc1cccc(C(=O)NC(=S)Nc2cccc(C(F)(F)F)c2)c1 was tested, and the Potency was inconclusive: 20 µM [inhibitor, partial curve].
For O=C(O)c1ccc(-c2ccccc2C(F)(F)F)s1, the activity change, negative = inhibition was inactive: -5.05% [at 0.00818 µM].
Cc1ccc(N(CC(O)COCc2ccco2)S(=O)(=O)c2ccc(C)cc2)cc1 (stereo not drawn) was tested, and the Potency was inconclusive: 31.6 µM [inhibitor, single point].
With O=C(CSc1nc(-c2ccccc2)cc(C(F)(F)F)n1)N1CCOCC1 the Potency was “inactive”.
In the case of O=[N+]([O-])c1ccccc1SNc1ccccn1, the Potency was “inactive”.
For CCOC(=O)c1c(OCC)[nH]c2c1cc(O)c1ccccc12, the Potency was inconclusive: 14.1 µM [inhibitor, partial curve].
With Cc1ccc(N2CCCn3c2nc2c3c(=O)n(CCN3CCOCC3)c(=O)n2C)cc1 the Potency was “inactive”.
In the case of O=C(O)C12CC3CC(C1)CC(n1ncc(N4CCN(c5ccccc5)CC4)c(Cl)c1=O)(C3)C2, the Potency was “inactive”.
In the case of O=c1nc(NCc2ccco2)sc2ncccc12, the Potency was “inactive”.
CCN(CC)C(=S)SSC(=S)N(CC)CC was tested, and the Potency was inconclusive: 2 µM [inhibitor, full curve] and inconclusive: 3.16 µM [inhibitor, full curve] and inconclusive: 3.55 µM [inhibitor, full curve].
In the case of Cc1ccc2nc(NC(=S)NC(=O)c3ccc(OC(C)C)cc3)sc2c1, the Potency was inconclusive: 14.1 µM [inhibitor, partial curve].
For O=C(NC1CCCc2ccccc21)c1cccnc1 (stereo not drawn), the Potency was “inactive”.
C=CCNC(=S)NNc1nc2c(c(=O)[nH]1)C1(CCCCC1)Cc1ccccc1-2 was tested, and the Potency was inconclusive: 25.1 µM [inhibitor, single point].
For Cc1ccc(NNC(=S)Nc2ccc(C(C)C)cc2)c(C)c1, the Potency was inconclusive: 28.2 µM [inhibitor, single point].
For CCCn1c(N)c(C(=O)CSc2nnc(Cc3ccccc3)o2)c(=O)n(C)c1=O, the Potency was “inactive”.
With O=C(NC(=S)NCc1ccc2c(c1)OCO2)c1ccccc1 the Potency was inconclusive: 31.6 µM [inhibitor, single point].
With CCOc1ccc(S(=O)(=O)NCC(=O)N(C)Cc2cccnc2)cc1 the Potency was inconclusive: 8.91 µM [inhibitor, single point].
With N#Cc1cc(Oc2cccc3cccnc23)c(-n2nnc3ccccc32)cc1C#N the Potency was active: 10 µM.
In the case of Cc1nnc(N/N=C/c2cccc(OCc3ccc(Cl)c(Cl)c3)c2)n1N, the Potency was inconclusive: 28.2 µM [inhibitor, single point].
COc1ccccc1/C=C/C(=O)NC(=S)N(C)C1CCCCC1 was tested, and the Potency was inconclusive: 28.2 µM [inhibitor, partial curve].
CN1C(=O)CC(N2CCN(Cc3ccc(Cl)cc3)CC2)C1=O (stereo not drawn) was tested, and the Potency was inconclusive: 3.98 µM [inhibitor, full curve, poor fit].
For O=c1c(O)c(-c2ccc3c(c2)OCO3)oc2ccccc12, the Potency was inconclusive: 0.631 µM [inhibitor, full curve].
Cc1ccc(Cn2c(CN(C)Cc3ccccc3)nc3c2c(=O)n(C)c(=O)n3C)cc1 was tested, and the Potency was “inactive”.
In the case of O=C(Nc1ccc(S(=O)(=O)N2CCCC2)cc1)N1c2ccccc2Sc2ccccc21, the Potency was inconclusive: 28.2 µM [inhibitor, single point].
For COc1ccc(-c2nnc3sc(C4CCCCC4)nn23)cc1OC, the Potency was “inactive”.
In the case of O=C(CCN1CCN(CCO)CC1)Nc1ccc(F)c(F)c1, the Potency was “inactive”.
With CCCCC1(Cc2ccc([N+](=O)[O-])cc2)C(=O)N(c2ccccc2)N(c2ccccc2)C1=O the Potency was “inactive”.
For Cc1c(N/N=C(\C#N)C(=O)c2ccc(Cl)cc2)c(=O)n(-c2ccccc2)n1C, the Potency was inconclusive: 2.24 µM [inhibitor, full curve].
For Cc1ccccc1C(=O)c1cccn1CC(=O)N1CCCCCC1, the Potency was “inactive”.
With COc1ccc(CCNC(=S)Nc2cc(C)cc(C)c2)cc1 the Potency was inconclusive: 25.1 µM [inhibitor, single point].
For O=C1C2C3C=CC(CO)(O3)C2C(=O)N1c1ccccc1-c1ccccc1 (stereo not drawn), the Potency was inconclusive: 7.94 µM [inhibitor, partial curve].
In the case of COc1ccc(NC2=NCC(=O)N2c2ccccc2F)c(OC)c1, the Potency was “inactive”.
In the case of Oc1ccc(C2=Nn3c(nnc3-c3ccco3)SC2)cc1O, the Potency was inconclusive: 0.0398 µM [inhibitor, full curve].
In the case of N#C/C(=C\c1ccc(O)c(O)c1)C(=O)NCCc1ccccc1, the Potency was inconclusive: 12.6 µM [inhibitor, partial curve].
In the case of Cc1cc(C)cc(NC(=S)Nc2ccccn2)c1, the Potency was inconclusive: 20 µM [inhibitor, partial curve].
In the case of CCN(CC)C1=N/C(=C\c2ccc(OC)cc2)C(=O)N1c1ccccc1, the Potency was “inactive”.
In the case of CCOC(=O)c1ccc(NC(=S)Nc2ccccc2)cc1, the Potency was “inactive”.
With COc1ccccc1OCCNC1CCCC1 the Potency was “inactive”.
In the case of CCC(c1nnnn1Cc1ccco1)N(CCc1ccccc1)Cc1cc2ccc(OC)cc2[nH]c1=O (stereo not drawn), the Potency was inconclusive: 14.1 µM [inhibitor, partial curve].
COCC(=O)N1CCC2(CCCN(c3ccccn3)C2)CC1 was tested, and the Potency was “inactive”.
For Nc1c(C(=O)Nc2ccc(Br)cc2)sc2nc(-c3ccco3)ccc12, the Potency was inconclusive: 20 µM [inhibitor, partial curve].
COc1cccc(/C=N/NC(=O)CSCC(=O)Nc2ccccc2)c1O was tested, and the Potency was inconclusive: 3.16 µM [inhibitor, full curve].
For CCOC(=O)CSc1nc2c(sc3ccc([N+](=O)[O-])cc32)c(=O)n1Cc1ccco1, the Potency was “inactive”.
With CC(/C=N/n1c(COc2ccccc2)n[nH]c1=S)=C\c1ccccc1 the Potency was inconclusive: 11.2 µM [inhibitor, partial curve].
With Nc1ncnc2nn([C@H]3O[C@@H](CO)[C@@H](O)[C@H]3O)nc12 the activity change, negative = inhibition was inactive: -1.63% [at 11.4 µM].
In the case of N#Cc1c(N)oc(-c2ccc3c(c2)OCO3)c1-c1ccc2c(c1)OCO2, the Potency was inconclusive: 7.94 µM [inhibitor, partial curve].
For O=S(=O)(c1ccc(Cl)cc1)N1CCN(C(=S)Nc2ccc(F)c(Cl)c2)CC1, the Potency was inconclusive: 12.6 µM [inhibitor, partial curve].
With COc1ccc(O)c(-c2cc(-c3cccc(Br)c3)n[nH]2)c1 the Potency was inconclusive: 11.2 µM [inhibitor, partial curve].
CCN1C(=O)/C(=C/c2cccs2)N(C)C1=S was tested, and the Potency was inconclusive: 17.8 µM [inhibitor, single point].
With Cn1c(N/N=C/c2c[nH]c3ccccc23)nc2ccccc21 the Potency was inconclusive: 28.2 µM [inhibitor, partial curve].
For Cn1c(CCN2CCCCC2)nc2cc(NS(=O)(=O)c3ccc(Cl)cc3)ccc21, the Potency was inconclusive: 5.01 µM [inhibitor, partial curve].
For O=C(Nc1cccs1)Nc1ccccc1Cl, the Potency was inconclusive: 22.4 µM [inhibitor, single point].
C/C=C\C[C@H](C)[C@H](O)[C@H]1C(=O)N[C@@H](CC)C(=O)N(C)CC(=O)N(C)[C@@H](CC(C)C)C(=O)N[C@@H](C(C)C)C(=O)N(C)[C@@H](CC(C)C)C(=O)N[C@@H](C)C(=O)N[C@@H](C)C(=O)N(C)[C@@H](CC(C)C)C(=O)N(C)[C@@H](CC(C)C)C(=O)N(C)[C@@H](C(C)C)C(=O)N1C was tested, and the Potency was “inactive”.
For C[C@@H](C(=O)O)c1ccc(C(=O)c2ccccc2)s1, the Potency was “inactive”.
With O=S(=O)(Cc1ccccc1)N1CCCCCC1 the Potency was “inactive”.
